# Laboratory results: PubChem BioAssay AID624417 (National Center for Advancing Translational Sciences (NCATS), 2012)
# In all, about 410,000 compounds went through this assay and about 6,400 (1.6%) were called active. Inconclusive means that the source gave no clear call. Such entries were picked first, then a sample of the others. The call rests on the fitted dose curve; in most records, active means well fitted inhibition curve with a large enough effect; inconclusive means small, poorly fitted or top-dose-only effect; inactive means no such curve, though single readings can be large or run the other way. Potencies of inconclusive entries are left out as doubtful fits.
# Molecular target: Glucagon-like peptide 1 receptor (Homo sapiens) (UniProt P43220)
# Test: qHTS of GLP-1 Receptor Inverse Agonists (Inhibition Mode); further: nearly all actives have a fitted effect of over 55% in size
# Settings: HEK293 GLP-1R CRE-luciferase, luminescence, 24 h, GLP-1R form is constitutively active; activity change, negative = inhibition: at 38.3 µM (top of the series) unless noted
# Summary of the method: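 Inverse agonism was detected as reduced cAMP-driven luciferase luminescence after 24 h compound treatment. The cells were HEK293 clones expressing constitutively active human GLP-1R with the reporter. Reporter-only and GPR119 cell lines served as counterscreen controls.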
# On the % scale 0 is the no-effect control and ±100 the full control effect; potency means the concentration at half of the fitted maximal effect; tags describe the fitted curve by direction and shape.
# Chain of UniProt P43220 (P43220 whole entry, looked up): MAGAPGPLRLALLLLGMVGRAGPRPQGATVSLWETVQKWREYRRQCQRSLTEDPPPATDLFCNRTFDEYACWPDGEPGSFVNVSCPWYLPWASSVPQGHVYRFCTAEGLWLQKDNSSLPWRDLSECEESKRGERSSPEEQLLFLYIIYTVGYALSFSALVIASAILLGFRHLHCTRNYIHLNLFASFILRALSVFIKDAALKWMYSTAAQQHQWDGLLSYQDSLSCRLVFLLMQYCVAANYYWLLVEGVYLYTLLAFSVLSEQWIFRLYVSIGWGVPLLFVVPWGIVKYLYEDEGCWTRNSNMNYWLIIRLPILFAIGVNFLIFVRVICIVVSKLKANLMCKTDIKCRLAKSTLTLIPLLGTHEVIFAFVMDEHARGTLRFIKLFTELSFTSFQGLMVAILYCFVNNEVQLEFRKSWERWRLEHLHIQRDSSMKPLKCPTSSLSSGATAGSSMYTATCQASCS
Compound,"activity change, negative = inhibition",Potency
COc1ccc(CCNC(=O)Cn2c(=O)n(-c3cc(OC)c(OC)c(OC)c3)c(=O)c3ccccc32)cc1OC,inactive: -3.41%,
CCOc1ccccc1C(=O)N[C@H](C(=O)OCc1csc(CC(=O)Nc2ccc(C)cc2)n1)C(C)C,,"inconclusive [inhibitor, partial curve, poor fit]"
COc1ccc(-c2[nH]ncc2N=Nc2cc(C)cc(C)c2)cc1,,"inconclusive [inhibitor, partial curve, poor fit]"
Cc1nc(-c2ccc(S(=O)(=O)N3CCCN(CCc4ccccc4)CC3)s2)cs1,,"inconclusive [inhibitor, partial curve, poor fit]"
COc1ccc(Br)cc1/C=N/NC(=O)c1cccnc1,,"inconclusive [inhibitor, full curve, poor fit]"
Cc1cc(NC(=O)CN2C(=O)N(C)C3(CCCCC3)C2=O)ccc1Br,,"inconclusive [inhibitor, single point]"
Cc1ccc(C(=O)NC(=S)N(C)Cc2ccccc2)cc1,,"inconclusive [inhibitor, partial curve, poor fit]"
Cc1nn(C(=O)COc2ccccc2)c(C)c1Sc1ccccc1,inactive: 5.28%,
Oc1ccc(Cc2ccccc2)c2cccnc12,,active: 6.31 µM
CCC(C)c1ccc(NC(=O)NCCN2CCCCC2)cc1 (configuration not stated),,"inconclusive [inhibitor, partial curve, poor fit]"
CCOc1ccc(CC(=O)NCCc2csc(-c3ccc(C(F)(F)F)cc3)n2)cc1,inactive: -1.13%,
CC(C)(C)c1ccc(Oc2nc3ccccn3c(=O)c2/C=C(\C#N)c2nc3ccccc3[nH]2)cc1,inactive: 2.17%,
O=Cc1s/c(=N\S(=O)(=O)c2ccccc2)n(CCCCl)c1Cl,,active: 2.82 µM
COc1ccc(CNC(=O)c2ccc3c(c2)N(C)C(=O)C2CCCCN32)cc1OC (configuration not stated),inactive: 15.8%,
CC1Oc2ccccc2N(CC(=O)c2cccc(Cl)c2)C1=O (configuration not stated),,"inconclusive [inhibitor, single point]"
O=C(CCC(=O)N1CC2CCCN2c2ccccc21)NCc1ccccc1 (configuration not stated),inactive: -21%,
CC(=O)Nc1sc(N/N=C\c2cccc(Cl)c2)nc1-c1cccs1,,"inconclusive [inhibitor, single point]"
O=C(NC(=S)Nc1ccc(N2CCOCC2)cc1)c1cccc(Cl)c1,,"inconclusive [inhibitor, partial curve, poor fit]"
CC1(C)C(=O)N(c2ccccc2F)C(=O)c2ccccc21,,"inconclusive [inhibitor, single point]"
CCc1ccc2oc(=O)cc(CN3CCC(C)CC3)c2c1,,"inconclusive [inhibitor, partial curve, poor fit]"
CN(C)c1ccc(-c2cc([C@H]3[C@@H]4C=CCC[C@@]4(C)C(=O)N3Cc3ccccc3)ccc2F)cc1,,"inconclusive [inhibitor, partial curve, poor fit]"

Compound,"activity change, negative = inhibition",Potency
CCOc1ccccc1NC(=O)C(NS(=O)(=O)c1ccc2c(c1)CCC(=O)N2)c1ccccc1 (configuration not stated),inactive: -5.06%,
CC(C)NC(=O)CC(=O)Nc1ccc2nc3n(c(=O)c2c1)CCCCC3,inactive: -3.75%,
CCCCN(CC)CCNC(=O)c1cc2c(-c3ccccc3F)nn(C)c2s1,,"inconclusive [inhibitor, single point]"
Cc1ccc(NC(=O)c2cccs2)cc1NC(=O)c1ccc(F)cc1,,"inconclusive [inhibitor, single point]"
CC(=O)c1ccc(N2CCN(C(=O)c3cc(-c4ccncc4)nc4ccc(Cl)cc34)CC2)cc1,inactive: 15.1%,
Cn1cc(CN2CCCC(C(=O)Nc3cccc(-c4cc5ccccc5[nH]4)c3)C2)cn1 (configuration not stated),,"inconclusive [inhibitor, partial curve, poor fit]"
CCOc1ccc(-c2nnc(N3CCOCC3)c3ccccc23)cc1,,"inconclusive [inhibitor, single point]"
CC1CC(C)CN(c2nc(N(C)c3ccccc3)nc(N)c2[N+](=O)[O-])C1 (configuration not stated),,"inconclusive [inhibitor, partial curve, poor fit]"
O=C(Nc1cccc(F)c1)N1CCC(n2c(=O)[nH]c3ccccc32)CC1,,"inconclusive [inhibitor, single point]"
CC1=C(C(=O)N(C)C)CC(CC(=O)NCc2cccc3ccccc23)C(=O)N1Cc1ccc(C(C)(C)C)cc1 (configuration not stated),,"inconclusive [inhibitor, single point]"
CC(C)(C)NC(=O)c1ccc2nccnc2c1,inactive: 0.513%,
COC(=O)c1ccc(NC(=S)NC2c3ccccc3CC2O)cc1 (configuration not stated),,"inconclusive [inhibitor, partial curve, poor fit]"
OCCCNCc1ccc(Cl)cc1Cl,,"inconclusive [inhibitor, partial curve, poor fit]"
COc1ccc(C(=O)/C=C/c2ccc(O)cc2)c(O)c1C/C=C(\C)CCC=C(C)C,,"inconclusive [inhibitor, single point]"
Cc1cccc(N(CC(=O)NCCSCc2ccc(Cl)cc2)S(C)(=O)=O)c1C,,"inconclusive [inhibitor, single point]"
O=C(NCCCN1CCN(c2cccc(Cl)c2)CC1)Nc1ccccc1C(F)(F)F,,"inconclusive [inhibitor, single point]"
Cc1cccc(N(Cc2cc3ccc(C)cc3[nH]c2=O)C(=O)c2ccco2)c1,,"inconclusive [inhibitor, single point]"
Cc1nn(Cc2ccc(C(=O)N3c4ccc(F)cc4CCC3C)o2)c(C)c1Br (configuration not stated),,"inconclusive [inhibitor, single point]"
CC(=O)c1cccc(NC(=O)c2cccn2-c2nnc(N3CCCCC3)s2)c1,inactive: 4.42%,
O=C(NCCc1ccc2c(c1)OCO2)C1CCN(S(=O)(=O)c2ccc(Cl)cc2)CC1,,"inconclusive [inhibitor, single point]"
COc1cccc(C(c2cccc(OC)c2)c2ccccc2C(=O)O)c1,,"inconclusive [inhibitor, partial curve, poor fit]"

Compound,"activity change, negative = inhibition",Potency
CCn1c(=NC(=O)CS(=O)(=O)c2ccc(F)cc2)sc2cccc(OC)c21,,"inconclusive [inhibitor, partial curve, poor fit]"
CCc1ccc(-c2nc(CSCC(=O)NC3CC3)c(C)o2)cc1,,"inconclusive [inhibitor, partial curve, poor fit]"
CC(C)N(Cc1nc(-c2ccccc2)no1)C(=O)Cc1ccccc1,,"inconclusive [inhibitor, single point]"
Cc1ccc(-c2cccc(CN3CCN(C4CCN(C(C)C)CC4)C(CCO)C3)c2)o1 (configuration not stated),,"inconclusive [inhibitor, partial curve, poor fit]"
CCN(c1cccc(C)c1)S(=O)(=O)c1ccc2c(c1)NC(=O)CCS2,,"inconclusive [inhibitor, single point]"
Cn1c(CSc2nc3ccccc3s2)nc2ccccc21,,"inconclusive [inhibitor, single point]"
CC(=O)Nc1cccc(NC(=O)CSc2cn(CC(=O)N(C(C)C)C(C)C)c3ccccc23)c1,inactive: -17.4%,
COc1ccc(NC(=O)Nc2ccccc2)cc1S(=O)(=O)N1CCCCC1,,"inconclusive [inhibitor, partial curve, poor fit]"
CCOC(=O)[C@]12CCC=C1N(Cc1ccc3c(c1)OCO3)C(=O)[C@H](CC(=O)NCc1ccc(C)o1)C2,,"inconclusive [inhibitor, full curve, poor fit]"
COc1ccc(CCNC(=O)c2cc(Nc3cc(C)cc(C)c3)nc3ccccc23)cc1OC,,active: 4.47 µM
COc1ccc(C(=O)N2CCc3c([nH]c4ccccc34)C2C(F)(F)F)cc1 (configuration not stated),,"inconclusive [inhibitor, single point]"
COc1cc(NC(=S)Nc2cccc(Cl)c2Cl)c(OC)cc1Cl,,"inconclusive [inhibitor, partial curve, poor fit]"
O=C1/C(=C\c2ccco2)SC(=S)N1C1CCS(=O)(=O)C1 (configuration not stated),,"inconclusive [inhibitor, partial curve]"
Cc1cccc(N2CCN(C(=O)CCC(=O)N3Cc4ccccc4Oc4ncccc43)CC2)c1C,,"inconclusive [inhibitor, partial curve, poor fit]"
COc1cc(/C=N/NC(=O)c2ccc(N)cc2)ccc1OC(=O)c1cccc(C)c1,,"inconclusive [inhibitor, partial curve, poor fit]"
COc1ccc(OC)c(CNC(=O)CCCc2cn(C)c3ccccc23)c1,,"inconclusive [inhibitor, partial curve, poor fit]"
COc1ccc(NC(=O)C(=O)NCCC2CCCCN2S(=O)(=O)c2ccc(F)cc2)cc1 (configuration not stated),,"inconclusive [inhibitor, full curve, poor fit]"
CN(Cc1ccccc1)C(=O)c1[nH]cnc1C(=O)N[C@@H](Cc1ccccc1)C(=O)OC(C)(C)C,,"inconclusive [inhibitor, single point]"
O=S(=O)(NCc1ccc2c(c1)OCO2)c1ccc(Cl)s1,,"inconclusive [inhibitor, single point]"
COc1ccc(N2CCN(c3c4c(nc5nncn35)CCC4)CC2)cc1,,"inconclusive [inhibitor, partial curve, poor fit]"
